# Data from the supplement of paper PMC12217912.
# The other results are listed elsewhere or left out. The full chains were built here from the parent and the listed change. Values near 0.05 are background.
# B1: TEV protease; numbered along this chain (parent)
# chain: MGESLFKGPRDYNPISSSICHLTNESDGHTTSLYGIGFGPFIITNKHLFRRNNGTLVVQSLHGVFKVKDTTTLQQHLVDGRDMIIIRMPKDFPPFPQKLKFREPQREERICLVTTNFQTKSMSSMVSDTSCTFPSGDGIFWKHWIQTKDGQCGSPLVSTRDGFIVGIHSASNFTNTNNYFTSVPKNFMELLTNQEAQQWVSGWRLNADSVLWGGHKVFMVKPEEPFQPVKEATQL
# Variants of: B1
# Assay: raw area under fraction-flipped curve 0-4 h after induction (AUC4h, not background-subtracted), DNA-recorder readout of cleavage of the substrate (dimensionless); higher = more cleavage of the substrate by the protease variant
# Conditions: temperature: 34 °C; time window: 0-4 h after rhamnose induction
# Experimental: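 In vivo DNA recorder in E. coli TOP10(DE3) ΔrhaA at 34 °C. Each TEVp single-site mutant (parent TEVp 0) is paired with a single-site variant of the 7-mer TEVs (canonical ENLYFQ|S). The substrate sits between flexible linkers in a Bxb1-sfGFP-TEVs-SsrA fusion, so cleavage stabilises Bxb1 and speeds flipping of a recombination array, read by NGS. The value is the raw area under the fraction-flipped curve over 0-4 h after rhamnose induction (AUC4h), with ≥20 reads per time point. It is not background-subtracted; inactive controls average about 0.047.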
# 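Note: Bxb1 expression induced with 0.2% (w/v) L-rhamnose at OD600 near 0.5, cultures sampled hourly, flipped fraction per protease–substrate barcode pair counted by paired-end Illumina sequencing.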
Variant,area with substrate ENLYCQS,area with substrate ENLYDQS,area with substrate ENLYEQS,area with substrate ENLYGQS,area with substrate ENLYHQS,area with substrate ENLYIQS,area with substrate ENLYKQS,area with substrate ENLYMQS,area with substrate ENLYNQS,area with substrate ENLYQQS,area with substrate ENLYRQS,area with substrate ENLYSQS,area with substrate ENLYTQS,area with substrate ENLYVQS,area with substrate ENLYWQS,area with substrate ENLYPQS,area with substrate ENLYYQS,area with substrate ENLYLQS
P155K,0.0675,0.0327,0.0569,0.0487,0.0693,0.0544,0.0495,0.0583,0.0511,0.0415,0.0539,0.0529,0.0583,0.072,0.0569,,,
I36T,,0.0616,0.0699,0.0677,0.0664,0.0961,0.126,0.0796,0.0624,0.0581,,,0.0789,0.088,0.0687,0.0773,0.0642,
D27W,,0.0591,0.0642,0.0552,0.0915,,0.0497,0.0832,0.0487,0.0561,0.0575,0.0648,0.0571,0.0475,0.0629,0.0741,0.0595,0.0849
N52V,,0.0582,0.038,0.0584,0.0626,0.0773,,0.0536,0.0591,0.0667,,0.0453,0.0624,0.0888,0.0707,0.0595,,0.0653
Q151M,0.105,0.0596,0.0809,,0.048,0.106,0.0717,0.0797,0.0449,,0.0632,0.0632,,0.0509,,,,
T23L,,0.0759,0.0688,0.0662,0.0762,0.131,0.0543,0.0856,0.0749,0.0666,0.0627,0.0628,,0.0597,0.0836,0.0842,0.0534,0.0891
S171L,0.064,,0.0632,0.063,0.0506,,0.0562,0.0445,0.0669,0.0631,0.0602,0.0582,0.0571,0.055,0.0639,0.062,,
S154H,0.0789,0.0613,0.0732,0.0605,0.0646,,0.0479,0.0783,0.071,0.0493,0.0568,,0.0763,0.0948,0.0716,0.0581,0.0676,0.0497
L191A,0.0731,0.0409,,0.0517,,,0.0573,0.0681,0.0655,0.0615,,,,0.0671,0.06,0.0709,,0.0544
I42L,,0.0535,0.0606,0.0655,0.118,0.105,0.0693,0.08,0.0675,,0.0329,,,0.113,0.0788,0.0844,0.0615,
E195K,0.0675,0.0638,0.062,0.0628,0.0686,0.112,0.0462,0.0838,0.0622,0.0675,0.059,0.0522,0.0844,0.109,0.081,0.0505,0.0668,
D11V,,0.0926,0.0636,0.0678,0.0705,0.0805,,0.0589,0.0663,0.0659,,0.0704,0.108,0.0529,0.0565,,0.0556,0.0688
T114Y,0.0911,0.0689,,0.0941,0.0807,0.116,0.0553,0.083,0.074,,0.0478,,0.0773,,,,,0.0917
S169W,0.0553,,,,,,,,,,,0.0594,,0.0532,,,,
K66L,,0.0589,0.0615,0.0338,0.0626,0.163,0.0781,,0.0662,0.0616,0.0519,0.0672,0.0847,0.128,0.0778,0.053,0.0693,
K148Q,0.0869,0.0736,,,0.0655,,0.0587,0.0909,0.0795,0.0639,0.0598,0.0677,0.0853,,0.0766,0.0894,0.0653,
Q146T,0.0721,0.0557,0.0713,0.0586,0.0754,0.109,0.0591,0.0895,0.0737,0.0599,0.065,,0.0795,0.104,0.0939,0.0655,,
Q146C,0.115,0.0709,0.0405,,0.0687,0.153,0.0909,0.0884,0.0559,0.0702,0.0637,,,0.139,0.081,0.072,0.0624,0.105
P9L,,0.0555,0.0839,0.0593,0.077,,0.0565,0.0806,0.0656,0.0495,0.0696,0.0742,,0.156,,0.0857,,
H215C,0.0165,0.0632,0.0683,0.033,0.0642,0.0614,0.0582,,0.0577,0.0627,0.0633,,0.0667,,0.055,0.0669,0.0598,
L190Y,0.0711,0.0636,0.069,0.0613,0.0727,0.0549,0.0679,0.0806,0.0844,0.0594,0.045,0.0859,,0.104,,0.0531,0.0346,0.0756
T30Y,,0.0733,0.0646,0.0748,0.0533,0.125,0.0517,0.0734,0.0697,,0.0644,0.0727,0.0868,0.11,0.0952,0.0733,0.0476,0.074
T55S,,0.0674,0.0658,0.0649,0.0571,0.122,,0.0944,0.0639,,0.0469,,,0.141,0.0845,0.0658,0.059,
W141I,0.0493,0.0661,0.0729,0.0575,0.0692,0.0595,,0.0613,0.0173,0.0684,0.052,,0.0518,,,0.0601,,0.0404
G39I,,0.0413,0.0409,,0.0402,0.0501,0.0276,0.0418,0.0367,,0.0503,0.0532,0.0645,0.0383,0.0296,0.0449,0.0393,
S121M,0.0713,,0.0613,0.0599,0.0634,0.118,0.0611,0.0921,0.0646,0.0556,0.0571,0.0609,0.0716,,0.0766,0.0711,,
